Several values for one entry are separate records, joined by “and”; a condition that tells them apart may be missing. Equal values may be shown once.

For the data set the following is noted: Gallus gallus; pH 1.9; 25 °C; Urea; CD; Glycine hydrochloride 0.05 M; reversible: Yes.

In the case of “Lysozyme C wild type (chain not printed)”, the denaturant m value is 1.19 kcal/mol/M and 1.24 kcal/mol/M and 1.13 kcal/mol/M; the “denaturant midpoint (higher = more stable)” value was 4.8 M and 4.4 M and 4.2 M; the unfolding free energy was 23.7 kJ/mol and 23 kJ/mol and 19.9 kJ/mol.

(Values after FireProtDB (doi:10.1016/j.bpc.2005.09.016).)
